Measurements from PubChem BioAssay AID485344 (National Center for Advancing Translational Sciences (NCATS), 2010).
Hit rate of the full screen: of about 340,000 compounds, about 6,900 (2%) were called active. Cut-off read from the data, not from the text of the source: active = inhibition above about 30%; inactive = below that, where a call was filed. Only a part is listed here, and it is no random draw. The source gives no active or inactive call for entries shown without one.

Biological target: D(2) dopamine receptor (Homo sapiens) (UniProt P14416)
Chain of UniProt P14416 (P14416 whole entry, looked up): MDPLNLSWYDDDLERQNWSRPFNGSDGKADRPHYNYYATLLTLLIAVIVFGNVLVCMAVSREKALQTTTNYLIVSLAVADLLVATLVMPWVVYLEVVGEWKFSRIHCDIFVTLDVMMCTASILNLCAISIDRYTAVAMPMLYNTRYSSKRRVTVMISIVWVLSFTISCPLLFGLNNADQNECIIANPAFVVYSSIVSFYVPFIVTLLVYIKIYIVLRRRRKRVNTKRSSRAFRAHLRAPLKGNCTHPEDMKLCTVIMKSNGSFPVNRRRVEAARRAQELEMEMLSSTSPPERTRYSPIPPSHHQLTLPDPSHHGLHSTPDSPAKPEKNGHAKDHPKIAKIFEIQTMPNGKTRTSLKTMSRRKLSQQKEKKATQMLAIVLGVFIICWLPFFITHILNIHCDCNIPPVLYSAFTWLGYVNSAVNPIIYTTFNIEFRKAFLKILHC
Assay: HTS Assay for Allosteric Antagonists of the Human D2 Dopamine Receptor: Primary Screen for Antagonists; note: 0% is about no effect
Conditions: HEK293 TREx D2 cells, calcium flux, dopamine EC80; at 10 µM; stronger effect = higher value
Excerpt: NIH Chemical Genomics Center [NCGC] NIH Molecular Libraries Probe Centers Network [MLPCN] MLPCN Grant: NS064831-01 Assay Submitter (PI): David Sibley Dopamine receptors (DARs) are involved in the etiology and/or therapy of a number of neuropsychiatric and endocrine disorders. For instance, all receptor-based antiparkinsonian drugs work via stimulating the D2 DAR subtype whereas all FDA-approved antipsychotic agents are antagonists of this receptor. […] There are three different types of allosteric modulators that we are seeking, two of which will stimulate or augment receptor signaling, allosteric agonists and potentiators, while the third, allosteric antagonists, will attenuate receptor signaling. The present primary screening assay measures compound antagonism after an EC80 addition of dopamine by tracking calcium flux in a […], inducible Hek293 Trex D2 cell line.
Freshly passaged cells are plated in 1536 well black, clear bottom plates at a density of 4000 cells/well in 3 ul of complete media containing 1x tetracycline inducer. After an overnight incubation at 30 C in 5% CO2, cells are loaded with 2 ul of the no wash Calcium Assay Kit (ABD Bioquest) and incubated at room temperature for 30 to 90 minutes. Agonist read: A 10 cycle (1 second/cycle) baseline measurement is taken and then the FDSS online 1536 pintool delivers 23 nl of compound library (as well as dopamine controls) to the plate. The plate is measured for kinetically at 1 cycle/sec for 180 seconds. Following the 180 second read, 1 ul of an EC80 (negative modulation assay) is delivered by an onboard pipette head. Measurements are taken kinetically for an additional 180 seconds.

Structure (SMILES) | inhibition
O=C(NCc1ccccc1Cl)C1CCCN(C(=O)c2cnn(-c3ccc(F)cc3)c2-n2cccc2)C1 (configuration not stated) | 0.433%
Cc1cccc(N2CCN(C(=O)c3cnc4c(C)cccn4c3=O)CC2C)c1 (configuration not stated) | 15.9%
Cc1nc2c(-c3ccccc3)c(C)nn2c(C)c1CCC(=O)NCCc1ccccc1 | 2.33%
CC(C)c1ccc(NC(=O)N2CCN(c3ccc(Cl)c(Cl)c3)CC2)cc1 | 8.7%
CCOc1ccc(NC(=O)CSc2nc3ccsc3c(=O)n2CCCCCC(=O)O)cc1 | -3.15%
CC(=O)N1CCCc2cc(S(=O)(=O)N3CCCC(C(=O)NCc4ccc(C)cc4)C3)ccc21 (configuration not stated) | -7.54%
CCOc1ccc(NCc2nc3ccccc3n2CCOc2ccc(C)cc2)cc1 | -15.4%
COc1cccc(Cn2c(CNS(=O)(=O)c3ccc(Cl)s3)nc3cccnc32)c1 | 20.5%
CCc1ccc(-n2nc3ccc(NC(=O)COc4ccc(OC)cc4)cc3n2)cc1 | 23%
CCc1nn2c(=O)c(S(=O)(=O)Nc3ccc(C(C)C)cc3)c(C)nc2s1 | -5.37%
COc1ccc(S(=O)(=O)N(C)C)cc1NC(=O)COC(=O)Cn1cnc2ccccc2c1=O | active: 37.9%
O=C(CSc1nc2c(c(=O)[nH]1)CN(Cc1ccc3c(c1)OCO3)CC2)Nc1ccccc1Cl | -5.97%
COc1ccccc1CNC(=O)CSc1nnc(C)c2c(C)n(-c3ccccc3)nc12 | -2.02%
Cc1cccc(NC(=O)c2nc[nH]c2C(=O)N2CCc3ccccc3C2)c1 | active: 85.9%
CC1(C)C2CC[C@]1(C)C(=O)N(CCCCN1CCN(c3ccccn3)CC1)C2=O | active: 116%
Cc1ccc(CCNC(=O)c2ccc3c(c2)nc2n3CCOC2)cc1 | -8.75%
CCOCCCn1c(SCC(=O)Nc2ccccc2Cl)nc2c(oc3ccccc32)c1=O | 13.2%
Cc1ccccc1OCCCCn1nnc2sc3c(c2c1=O)CCC(C)C3 (configuration not stated) | 5.17%
Cc1nc2sccn2c(=O)c1S(=O)(=O)Nc1cc(C(F)(F)F)ccc1Cl | 3.04%
COCCNC(=O)c1ccc(-c2nc(CS(=O)(=O)c3ccccc3)c(C)o2)cc1 | 10.8%
CN1C(=O)C2(SCC(=O)N2c2ccc(Cl)cc2)c2ccccc21 (configuration not stated) | -9.73%
CS(=O)(=O)N1CCc2cc(C(=O)Nc3ccc(C(F)(F)F)cc3)ccc21 | -15.4%
Cc1cc(C)n(-c2nc3cc(Cl)ccc3nc2N2CCN(c3ccccc3F)CC2)n1 | -20.9%
Cc1ccc(CNC(=O)CSc2nc3n[nH]c(C)c3c(=N)n2-c2ccccc2Cl)cc1 | 8.59%
Cc1ccc(S(=O)(=O)C(CNC(=O)COc2ccccc2)c2ccco2)cc1 (configuration not stated) | 4.78%

Structure (SMILES) | inhibition
CCCOc1ccc(-c2cc(C(F)(F)F)c(C#N)c(SCCC(=O)O)n2)cc1 | 3.34%
CCCN(CCC)C(=O)Cn1c(=O)n(CCCCCC(=O)NCc2ccccc2Cl)c(=O)c2sccc21 | -8.6%
CC(C)CCNC(=O)C(Cc1ccccc1)NS(=O)(=O)c1ccc2c(c1)c(=O)n(C)c(=O)n2C (configuration not stated) | 10.8%
Cc1ccc(C2c3c(oc4ccccc4c3=O)C(=O)N2c2nnc(C)s2)cc1 (configuration not stated) | -3.89%
CCN(CCCNC(=O)CN1N=C(c2ccccc2)CCC1=O)c1ccccc1 | 13.2%
COc1ccc(C)cc1Nc1ncnc2c1c(-c1ccccc1)cn2-c1ccc(C)cc1 | -15.4%
O=c1c2sc3ccccc3c2n(Cc2ccccc2)c(=O)n1CCc1ccccc1 | -4.12%
COc1ccc(S(=O)(=O)N2CCC(C(=O)Nc3cc(C(F)(F)F)ccc3Cl)CC2)cc1 | -13.3%
COc1ccc(NC(=O)CCCN2C(=O)C3C4C=CC(C4)C3C2=O)c(OC)c1 (configuration not stated) | active: 35.3%
COc1ccc(/C=C/C(=O)NCC(=O)N/N=C/c2cc(Br)ccc2OC)cc1 | active: 69.5%
COc1ccc(OC)c2sc(N3CCN(C(=O)C4COc5ccccc5O4)CC3)nc12 (configuration not stated) | 3.85%
COc1cccc(Cc2nc3ccccc3nc2SCC(=O)Nc2cc(OC)ccc2OC)c1 | 4.79%
CCC(C)NC(=O)Cn1c(=O)n(Cc2ccc(C(=O)NCc3ccc(C)cc3)cc2)c(=O)c2ccccc21 (configuration not stated) | 3.84%
CCOc1ccccc1CNCCSc1nnnn1C | -9.72%
CCOCCn1ccc2c(OCC(=O)Nc3cccc(F)c3)cccc2c1=O | 13.2%
CCOc1cc(-c2ccc(OC(=O)c3ccccc3)c(OC)c2)cc(=O)c2c(C)oc(C)c12 | 1.81%
Cc1cc(Cl)ccc1OCCCC(=O)N1CCN(C)CC1 | active: 32.2%
Cc1ccc2occ(CC(=O)Nc3ccc(S(=O)(=O)N4CCC(C)CC4)cc3)c2c1 | 5.38%
COc1ccc(Cl)cc1NC(=O)c1ccccc1C | active: 32.4%
O=C(Nc1cccc(F)c1)c1oc2ccccc2c1NC(=O)C12CC3CC(CC(C3)C1)C2 | -3.06%
CC(C)c1ccc(NC(=O)CCS(=O)(=O)c2ccc3c(c2)CC(=O)N3C)cc1 | 3.13%
O=S(=O)(c1ccccc1)c1nnn2c1nc(NCc1ccccc1)c1cc(Cl)ccc12 | 23.1%
Cc1cc(=O)[nH]c(SCC(=O)NCC2CCCO2)n1 (configuration not stated) | active: 34%
CCCCCn1cc2c(c1-c1ccccc1Br)c(=O)n(C)c(=O)n2C | 5.83%
O=C(NC1CCCCC1)c1ccc2c(c1)N(Cc1ccccc1Cl)C(=O)c1ccccc1S2 | -9.42%

Structure (SMILES) | inhibition
CCOc1ccccc1NC(=O)C1CCCN1S(=O)(=O)c1ccc2nc(-c3ccccc3)[nH]c2c1 (configuration not stated) | 3.3%
COc1ccc(CCNC(=O)Cn2cc(S(=O)(=O)Cc3ccc(F)cc3)c3ccccc32)cc1OC | -0.0488%
CCOc1ccc(C(=O)c2oc3ccccc3c2NC(=O)c2cc(-c3ccc(C)cc3)on2)cc1 | -19.7%
Cc1ccc(-c2cc(C(F)(F)F)n3ncc(-c4ccccc4)c3n2)cc1 | -1.11%
Cn1nnnc1SCCCNCc1cccc(OCc2ccccc2)c1 | -1.72%
CCOc1ccc(S(=O)(=O)Nc2cccc(-c3ccc(N4CCC(C)CC4)nn3)c2)cc1 | 7.59%
O=C(NCc1ccc(Cl)cc1)NC1COc2ccccc2C1 (configuration not stated) | 6.1%
COc1ccccc1/C=C/CN1CCN(c2ccccc2)CC1 | active: 76.8%
Cc1c(C(=O)OCc2ccccc2)[nH]c2c1C(=O)CC(c1ccc(Cl)cc1)C2 (configuration not stated) | -1.67%
CC1CCN(S(=O)(=O)c2ccc3c(c2)N(CC(=O)NCC(C)c2ccccc2)C(=O)CO3)CC1 (configuration not stated) | 10.6%
CN(C)CCC=C1c2ccccc2C=Cc2ccccc21 | active: 49.1%
O=C(NCc1ccco1)c1ccc(Cn2c(SCc3ccccc3F)nc3cccnc32)cc1 | -19.3%
CN(C)c1ccc(CNC(=O)C2COc3ccccc3C2)cc1 (configuration not stated) | 0.181%
CCc1ccc(NC(=O)C2=CC(c3cccs3)=NS(=O)(=O)N2C)cc1 | 12.4%
COc1cc(NS(=O)(=O)c2c(C)nc3sc(C)c(C)n3c2=O)cc(OC)c1 | 8.32%
COc1ccc(C)c2sc(NC(=O)c3ccc(S(=O)(=O)N4CCCC4)cc3)nc12 | -16.9%
CCOc1ccccc1CNC(=O)Cn1nc(N2CCN(c3ccccc3)CC2)ccc1=O | -2.81%
COc1ccc(C(=O)NCc2ccc3c(c2)CCN3C(=O)c2ccc(F)cc2)cc1 | 11.7%
CCOc1ccc(S(=O)(=O)Nc2ccc3oc4c(c3c2)CC(C)CC4)cc1 (configuration not stated) | -10.9%
COc1ccccc1CNC(=O)COCc1cc(-c2ccc3c(c2)OCO3)on1 | 3.97%
COc1ccc(/C=C(\C#N)c2nc3ccccc3c(=O)[nH]2)cc1OC | -12%
CC(C)CN(CC(C)C)CC(O)Cn1cc(/C=C/C(=O)c2ccccc2)c2ccccc21 (configuration not stated) | -2.26%
O=C(COc1ccc(F)cc1)OCc1cc(=O)n2nc(-c3cccs3)sc2n1 | 3%
COc1cccc(CNS(=O)(=O)c2c(C(=O)N3CCC(C)CC3)c(C)n(C)c2C)c1 | 7.74%
O=C1C(=O)N(C2CCN(C(=O)c3ccccc3F)CC2)CCN1Cc1ccc(F)cc1 | -4.33%

Structure (SMILES) | inhibition
Cc1ccc(-c2noc(CSc3nnc(C)n3-c3ccc(C)c(C)c3)n2)cc1 | 3.16%
c1ccc2c(c1)OCC(CNCC1COc3ccccc3O1)O2 (configuration not stated) | active: 64.2%
COc1ccc(Cl)cc1NC(=O)CSc1ccc2nnc(CCNS(=O)(=O)c3ccccc3)n2n1 | 9.56%
CCCCC(=O)Nc1nnc(S(=O)(=O)N(C)Cc2ccccc2)s1 | -18.7%
CCCCCNC(=O)C1CCC(Cn2c(=O)c3sccc3n(CC(=O)NCc3cccc(OC)c3OC)c2=O)CC1 (configuration not stated) | 8.64%
CCSc1nnc2c(n1)OC(c1ccc(OC)c(OC)c1)N(C(C)=O)c1ccccc1-2 (configuration not stated) | -1.48%
CC(C)Cn1c(=S)[nH]c2cc(C(=O)O)ccc2c1=O | active: 30.6%
Cc1cccc(N(C)S(=O)(=O)c2cc3[nH]c(=O)c(=O)[nH]c3cc2C)c1 | 2.35%
O=C(Nc1ccc(NC(=O)C2CC2)nc1)c1cccnc1 | active: 38%
COc1ccccc1C(=O)Nc1nnc2n1CCS2 | 14.9%
Cc1c(Cl)cccc1NC(=O)CSc1nc(=O)n(Cc2ccco2)c2c1CCC2 | -7.36%
CC(C)OCc1cc(CN2CCN(c3cccc(C(F)(F)F)c3)CC2)c(O)c2ncccc12 | -5.2%
Cc1ccc(CCNC(=O)CN(c2ccc(C)cc2)S(=O)(=O)N(C)C)cc1 | 6.01%
CCOc1ccc(NC(=O)c2cc(S(=O)(=O)N3CCN(c4ccccc4F)CC3)ccc2F)cc1 | 0.689%
Cc1ccc2[nH]c(=O)c3cc(C(=O)NC4CCC(C)CC4)sc3c2c1 (configuration not stated) | -19.4%
CCCCN(C)C(=O)CSc1nc2ccccc2nc1Cc1ccc(C)cc1 | 21.8%
O=c1cc(-c2ccccc2)n2c(SCc3ccccc3Cl)nnc2[nH]1 | -2.16%
CCOc1ccc(Nc2c(S(=O)(=O)c3ccc(C)cc3)cnc3ccc(F)cc23)cc1 | -3.02%
COc1cccc(CNC(=O)c2nc(Cn3nc(C)c(Br)c3C)no2)c1 | -6.6%
COc1ccccc1CNC(=O)C(=O)NCC(c1cccs1)S(=O)(=O)c1cccs1 (configuration not stated) | -6.33%
O=C(Cn1ncc2c3ccccc3n(Cc3cccc(Cl)c3)c2c1=O)Nc1ccc(F)cc1F | -1.21%
COc1cc(CNC(=O)c2ccc3c(c2)c(C)c(C)n3Cc2cccc(C)c2)cc(OC)c1OC | 3.11%
